The values below come from patent publication US5668170A, “Composition and method enhancing transdermal electrotransport agent delivery” (ALZA Corporation, priority 1996, dated 1997).

How the values of the data set were obtained:
Each floating epidermis was stretched essentially flat.
where V is the potential applied by the galvanostat and I is the electric current, 126 microamps. The drug flux was determined by periodic sampling of the solution in the receptor compartment 46.
Aqueous metoclopramide HCl (an anti-emetic drug salt) solutions having a concentration of about 100 mg/ml were placed in the donor compartment. The pH in the donor compartment was not adjusted but remained naturally at about 5.0 to 5.5 throughout the experiments. In an aqueous solution, metoclopramide HCl forms a positively charged drug ion and the electrotransport enhancers utilized in this experiment were representative of the following different categories of surfactants:
Each surfactant was added to a final concentration of 10 mM (except for dodecylpyrrolidone which was added to a final concentration of 100 mM) to the donor solutions for comparative purposes. The system was maintained at about 32° C. by means of a HAAKE Model D1 heating block/water bath. A constant electric current of 126 μA, ie, 100 μA/cm^2, was applied with the galvanostat across the anode 48 and cathode 50 throughout the entire procedure, and the cell voltage was monitored over the entire time and then averaged.
Samples were automatically taken from the receptor compartment every one to two hours, except for overnight periods, with an autosampler (ISCO Model 2230 Lincoln City, Nebr.) and a metering pump. The metoclopramide concentration in the receptor compartment was determined by light absorption at 310 nm wavelength, using a standard curve of concentration v. absorption. The absorption measurements were obtained with a 8452A UV/vis spectrophotometer (Hewlett-Packard, Palo Alto, Calif.). Three cells were typically used for testing each of the electrotransport enhancer compositions to minimize error, and tissue from the same donor was used in the three cells, two of the cells having the selected electrotransport enhancer in the donor compartment, and the third cell being a control cell which contained no electrotransport enhancer.
Generally, the flux and voltage measurements were taken at or after about 5 hours, at which time these levels achieved a steady state.
The normalized mass flux and voltage values obtained in the presence of each one of the electrotransport enhancers for the steady state flux of metoclopramide are shown in Table 1. That is each value obtained in the presence of an enhancer is divided by the control value. Thus, the control value for the normalized flux and cell voltage are both 1, and the normalized values in the presence of an enhancer deviate from this value as they influence the resistivity of the skin and/or metoclopramide flux through the skin. […] .
In the case of `CCCCCCCCCCCCOC(=O)C(C)O` (stereo not drawn) [Lauryl lactate, reference compound], the “effect on metoclopramide mass flux (in words)” value (“effect” below) was “none of these enhanced the mass flux”.
“Sorbitan monolaurate [reference compound]”: the “effect” value is given as “fail to have a significant effect”.
With “lauramphocarboxy propionate [Lauramphocarboxypropionate, reference compound]”, the “effect” value is given as “did not appear to affect”.
On to “polyethylene glycol di-laurate [PEG-4 Dilaurate, reference compound]”, for which the “effect” value was “none of these enhanced the mass flux”.
As to “polyethylene glycol monolaurate [PEG-4 monolaurate, reference compound]”, the “effect” value is “none of these enhanced the mass flux”.
Regarding “polyoxyethylene(23) lauryl ether [BRIJ 35, reference compound]”, the “effect” value is “none of these enhanced the mass flux”.
